Enrichment score data for 18 molecules are collected here from the supplement of paper PMC10369915.

The labels stand for the following.
B1: RET_HUMAN_1029 (peptide)
chain: TPSDSLIYDDGLSEE
B2: SCN5A_HUMAN_1494 (peptide)
chain: MTEEQKKYYNAMKKL
B3: RPS6KA3_HUMAN_488_YA (peptide)
chain: DVADDGKYVAVVTEL
B4: ROR2_HUMAN_646_YA (peptide)
chain: EVAAADAYKLLGNSL
B5: ROS1_HUMAN_2115_YA (peptide)
chain: DIAKNDAYRKRGEGL
B6: SEPT9_HUMAN_278 (peptide)
chain: KAPVDFGYVGIDSIL
B7: AT1A1_HUMAN_260 (peptide)
chain: TARGIVVYTGDRTVM
B8: REQU_HUMAN_172 (peptide)
chain: DDLDDEDYEEDTPKR
B9: RHOU_HUMAN_254 (peptide)
chain: SKSWWKKYCCFVGGG
B10: SDHA_HUMAN_215 (peptide)
chain: SLRYDTSYFVEYFAL
B11: RIPK2_HUMAN_474 (peptide)
chain: DLIMKEDYELVSTKP
B12: SF3B2_HUMAN_592 (peptide)
chain: TIHGDLYYEGKEFET
B13: SET_HUMAN_146_YA (peptide)
chain: FAFDENPYFENKVLS
B14: SHC1_HUMAN_349_YA (peptide)
chain: EEPPDHQYANDFPGK
B15: RON_HUMAN_1353 (peptide)
chain: SALLGDHYVQLPATY
B16: ROS1_HUMAN_2334 (peptide)
chain: GKPEGLNYACLTHSG
B17: SFPQ_HUMAN_691 (peptide)
chain: GPGTPAGYGRGREEY
B18: SHAN1_HUMAN_186 (peptide)
chain: GLKKFLEYVQLGTSD

The list shows a part of the results. No stated cut-off is given here; in the data, active = 3.2 or more and inactive = the rest. Most of these values are background signal.
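Further: displayed peptides selected on beads carrying the immobilized SH2 domain, with library peptides lacking any tyrosine serving as negative controls.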

The target in the first experiment is SHP2 C-SH2 domain E139D. The experiment in a line: enrichment score (SH2-bound / input frequency) (ratio); bacterial display of known human phosphotyrosine sites (pTyr-Var adds point mutants) read by sequencing; higher = stronger binding; tyrosines were phosphorylated by kinases first. The settings on record: peptide library: Human pTyr.
On to B1, for which the enrichment score is inactive: 1.25.

In the case of B2, the enrichment score was inactive: 0.971.

As to B3, the enrichment score is inactive: 0.69.

As to B4, the enrichment score was inactive: 0.779.

Consider B5, for which the enrichment score is inactive: 0.755.

As to B6, the enrichment score is inactive: 0.831.

With B7, the enrichment score is inactive: 0.779.

Consider B8, for which the enrichment score is inactive: 0.798.

As to B9, the enrichment score was inactive: 1.56.

As for B10, the enrichment score was inactive: 2.17.

Regarding B11, the enrichment score is inactive: 0.806.

Turning to B12, the enrichment score was inactive: 0.658.

Turning to B13, the enrichment score was inactive: 0.718.

As for B14, the enrichment score was inactive: 0.597.

For the molecule B15, the enrichment score was inactive: 0.616.

For the molecule B16, the enrichment score was inactive: 1.72.

Consider B17, for which the enrichment score is inactive: 0.682.

For B18, the enrichment score was inactive: 0.978.

The target in the next experiment is SHP2 C-SH2 domain wild-type. The description is as above. The settings on record: peptide library: Human pTyr.
With B1, the enrichment score was inactive: 1.15.

In the case of B2, the enrichment score was inactive: 1.15.

For B3, the enrichment score was inactive: 0.646.

On to B4, for which the enrichment score is inactive: 0.65.

As for B5, the enrichment score was inactive: 0.709.

As for B6, the enrichment score was inactive: 0.727.

On to B7, for which the enrichment score is inactive: 0.774.

For the molecule B8, the enrichment score was inactive: 0.856.

For B9, the enrichment score is inactive: 1.29.

As for B10, the enrichment score was inactive: 2.52.

As for B11, the enrichment score is inactive: 0.623.

Take B12: the enrichment score was inactive: 0.675.

As to B13, the enrichment score was inactive: 0.82.

Consider B14, for which the enrichment score is inactive: 0.585.

Regarding B15, the enrichment score was inactive: 0.587.

B16: the enrichment score was inactive: 2.1.

As for B17, the enrichment score was inactive: 0.583.

In the case of B18, the enrichment score was inactive: 0.869.

Another experiment addresses SHP2 N-SH2 domain L43F. The description is as above. The settings on record: peptide library: Human pTyr.
On to B1, for which the enrichment score was inactive: 1.32.

Consider B2, for which the enrichment score was inactive: 1.18.

Take B3: the enrichment score is inactive: 0.896.

Consider B4, for which the enrichment score was inactive: 0.696.

On to B5, for which the enrichment score is inactive: 0.68.

On to B6, for which the enrichment score is inactive: 0.864.

Regarding B7, the enrichment score is inactive: 0.64.

B8: the enrichment score is inactive: 0.86.

Turning to B9, the enrichment score is inactive: 1.2.

For the molecule B10, the enrichment score is inactive: 2.2.

As to B11, the enrichment score was inactive: 0.662.

For the molecule B12, the enrichment score is inactive: 0.717.

Turning to B13, the enrichment score is inactive: 0.648.

On to B14, for which the enrichment score was inactive: 0.633.

Consider B15, for which the enrichment score was inactive: 0.5.

Regarding B16, the enrichment score is active: 9.85.

B17: the enrichment score was inactive: 0.81.

On to B18, for which the enrichment score is inactive: 1.02.

For the next experiment, the target named is SHP2 N-SH2 domain T42A. Described as above. The settings on record: peptide library: Human pTyr.
Turning to B1, the enrichment score was inactive: 1.2.

Take B2: the enrichment score was inactive: 1.25.

Take B3: the enrichment score was inactive: 0.664.

With B4, the enrichment score is inactive: 0.793.

On to B5, for which the enrichment score is inactive: 0.688.

On to B6, for which the enrichment score was inactive: 0.838.

Consider B7, for which the enrichment score was inactive: 0.873.

Turning to B8, the enrichment score is inactive: 0.978.

In the case of B9, the enrichment score is inactive: 1.16.

B10: the enrichment score is inactive: 2.1.

Regarding B11, the enrichment score is inactive: 0.713.

Consider B12, for which the enrichment score was inactive: 0.601.

As to B13, the enrichment score is inactive: 0.698.

On to B14, for which the enrichment score was inactive: 0.728.

As to B15, the enrichment score is inactive: 0.48.

For the molecule B16, the enrichment score was active: 7.18.

As for B17, the enrichment score was inactive: 0.647.

With B18, the enrichment score is inactive: 0.975.

For a further experiment, the target named is SHP2 N-SH2 domain T52S. The description is as above. The settings on record: peptide library: Human pTyr.
As to B1, the enrichment score was inactive: 0.938.

In the case of B2, the enrichment score was inactive: 1.4.

With B3, the enrichment score was inactive: 0.898.

Regarding B4, the enrichment score is inactive: 0.694.

Take B5: the enrichment score was inactive: 0.75.

Turning to B6, the enrichment score is inactive: 0.664.

Take B7: the enrichment score was inactive: 0.831.

With B8, the enrichment score was inactive: 0.854.

For the molecule B9, the enrichment score is inactive: 1.15.

For the molecule B10, the enrichment score was inactive: 2.23.

In the case of B11, the enrichment score is inactive: 0.971.

On to B12, for which the enrichment score was inactive: 0.661.

B13: the enrichment score is inactive: 0.596.

As to B14, the enrichment score is inactive: 0.675.

For the molecule B15, the enrichment score is inactive: 0.641.

With B16, the enrichment score is active: 6.33.

For B17, the enrichment score is inactive: 0.636.

Consider B18, for which the enrichment score is inactive: 1.5.

In another experiment the target is SHP2 N-SH2 domain wild-type. The experiment is described as above. The settings on record: peptide library: Human pTyr.
Regarding B1, the enrichment score is inactive: 1.

Consider B2, for which the enrichment score is inactive: 1.04.

As for B3, the enrichment score is inactive: 0.619.

On to B4, for which the enrichment score was inactive: 0.627.

Regarding B5, the enrichment score was inactive: 0.709.

B6: the enrichment score is inactive: 0.837.

Turning to B7, the enrichment score is inactive: 0.839.

Turning to B8, the enrichment score is inactive: 1.23.

For the molecule B9, the enrichment score is inactive: 1.9.

Consider B10, for which the enrichment score was inactive: 2.79.

Turning to B11, the enrichment score is inactive: 1.01.

As to B12, the enrichment score is inactive: 1.02.

Turning to B13, the enrichment score is inactive: 0.829.

Take B14: the enrichment score was inactive: 0.591.

For B15, the enrichment score is inactive: 0.566.

B16: the enrichment score is inactive: 2.78.

For B17, the enrichment score is inactive: 0.573.

Consider B18, for which the enrichment score was inactive: 0.921.
